From PubChem BioAssay AID686979 (National Center for Advancing Translational Sciences (NCATS), 2013)
Among all 420,000 compounds or so, about 50,000 (12%) were called active. This list was built around the results that the source calls inconclusive (neither active nor inactive); the mix of calls is not that of the screen. Calls follow the shape of the dose curve; as a rule, active = well fitted inhibition curve with a large enough effect; inconclusive = small, poorly fitted or top-dose-only effect; inactive = flat fitted curve, though single readings scatter. Potencies of inconclusive entries are left out as doubtful fits.

Assay: qHTS for Inhibitors of human tyrosyl-DNA phosphodiesterase 1 (TDP1): qHTS in cells in presence of CPT; also: nearly all actives have a fitted effect of over 55% in size
Details: chicken DT40 Tdp1-/-;hTDP1 cells + 20 nM CPT, ATP luminescence, 48 h; activity change, negative = growth inhibition: at 46.2 µM (top of the series)
Outline: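 Chicken DT40 Tdp1-/- cells complemented with human TDP1, 400 cells/well, exposed to compounds plus 20 nM camptothecin for at least 48 h at 37 C; viability read as ATP content by CellTiter-Glo luminescence.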
% is scaled to controls: 0 for no effect and ±100 for the full control effect; potency is read from the fitted curve at half-maximal effect; tags tell the direction and shape of the fitted curve.

Q: With `CC1(O)CC2C(CC1O)C2(C)C` (stereo not drawn) as the molecule, how does the “activity change, negative = growth inhibition” value read?
A: Its value is inactive: -2.97%.

Q: For `COc1ccc(OC)c(CCNC(=O)c2cc3c(-c4ccccc4F)nn(C)c3s2)c1`, which Potency is on record?
A: Its Potency is active: 11.6 µM.

Q: For `COC(=O)c1sc(-c2ccc(Cl)cc2)cc1NC(=O)/C=C/C(=O)O`, which Potency is on record?
A: Its Potency is active: 5.8 µM.

Q: Which Potency does the source give for `Cc1cccc(C(=O)OCC(=O)c2csc(N3CCCCC3)n2)c1[N+](=O)[O-]` here?
A: The Potency was inconclusive [inhibitor, single point].

Q: Which Potency does the source give for `CCCS(=O)(=O)c1nc(S(=O)(=O)c2ccc(C)cc2)c(N2CCc3ccccc3C2)s1` here?
A: Its Potency is inconclusive [inhibitor, partial curve].

Q: Which Potency does the source give for `Cc1ccc(NS(=O)(=O)c2cccc(C(=O)N3CCCC(C)C3)c2)cc1` (stereo not drawn) here?
A: Its Potency is inconclusive [inhibitor, single point].

Q: Which Potency does the source give for `N/C(=N\OC(=O)c1cnn(-c2ccccc2)c1C(F)(F)F)c1ccc(C(F)(F)F)cc1` here?
A: Its Potency is inconclusive [inhibitor, single point].

Q: With `COc1ccc(C2Nc3ccccc3C(=O)N2NS(=O)(=O)c2ccc(C)cc2)cc1` (stereo not drawn) as the molecule, how does the Potency read?
A: The Potency was inconclusive [inhibitor, single point].

Q: With `Clc1ccc2nc(CN3CCCCC3)cn2c1` as the molecule, how does the Potency read?
A: The Potency was inconclusive [inhibitor, single point].

Q: For `O=c1cc(-c2ccccc2)nc(N2CCCCC2)[nH]1`, which “activity change, negative = growth inhibition” value is on record?
A: The value was inactive: -25.1%.

Q: With `CC1(C)OC(=O)C2=C(C[C@@H](C3CCCCC3)O[C@H]2c2ccc(Cl)cc2)O1` as the molecule, how does the Potency read?
A: Its Potency is inconclusive [inhibitor, single point].

Q: Which Potency does the source give for `CCOC(=O)c1sc(=S)n2c1[nH]c(=O)c1ccc(C(=O)OC)cc12` here?
A: Its Potency is active: 10.3 µM.

Q: Which Potency does the source give for `Cc1ccccc1NS(=O)(=O)c1ccc(C(=O)N2CCCCCC2)cc1` here?
A: Its Potency is inconclusive [inhibitor, single point].

Q: With `Cc1ccc(S(=O)(=O)N/N=C/c2cccn2-c2ccc(Cl)cc2)cc1` as the molecule, how does the Potency read?
A: The Potency was inconclusive [inhibitor, single point].

Q: For `CC(=O)NC(Cc1cccc(C)c1)C(=O)NC1CCN(S(=O)(=O)c2ccccc2)CC1` (stereo not drawn), which “activity change, negative = growth inhibition” value is on record?
A: The value was inactive: 10.9%.

Q: With `Cc1ccc(S(=O)(=O)N2CCN(C(=O)COC(=O)CSc3ccc(C)c(C)c3)CC2)c(C)c1` as the molecule, how does the “activity change, negative = growth inhibition” value read?
A: The value was inactive: 4.75%.

Q: Which Potency does the source give for `S=C(NCCCCNC(=S)NCc1ccccc1)NCc1ccccc1` here?
A: The Potency was inconclusive [inhibitor, single point].

Q: For `O=c1c2c(nc3nc(NCc4cccc5ccccc45)[nH]n13)CCC2`, which “activity change, negative = growth inhibition” value is on record?
A: The value was inactive: 5.29%.

Q: With `Cn1c(NC(=O)c2ccccc2)nc2ccccc21` as the molecule, how does the Potency read?
A: The Potency was inconclusive [inhibitor, single point].

Q: Which Potency does the source give for `O=C1/C(=C\c2cc([N+](=O)[O-])ccc2O)SC(=S)N1Cc1ccc(Cl)cc1` here?
A: Its Potency is active: 16.4 µM.

Q: Which Potency does the source give for `CCCn1c(N)c(C(=O)NS(=O)(=O)c2ccc(C)cc2)c(=O)n(C)c1=O` here?
A: Its Potency is inconclusive [inhibitor, partial curve].

Q: For `Nc1c(N(CCC2=CCCCC2)C(=O)c2ccco2)c(=O)[nH]c(=O)n1Cc1ccccc1`, which Potency is on record?
A: The Potency was inconclusive [inhibitor, single point].

Q: For `C=C(Br)Cn1c(CCCC)nc2ccccc21`, which Potency is on record?
A: Its Potency is active: 18.4 µM.

Q: With `COc1ccc(CCNC(=O)CCc2c(C)nc3cc(-c4ccccc4)nn3c2C)cc1OC` as the molecule, how does the Potency read?
A: Its Potency is active: 16.4 µM.

Q: With `COc1ccc(S(=O)(=O)N2CCN(c3nc(-c4ccccc4)nc4ccccc34)CC2)cc1` as the molecule, how does the Potency read?
A: The Potency was inconclusive [inhibitor, single point].

Q: Which Potency does the source give for `Nc1cccc(C(=O)OCC(=O)Nc2cccc3c2C(=O)c2ccccc2C3=O)c1` here?
A: The Potency was inconclusive [inhibitor, partial curve].

Q: For `CCCOc1cccc(C(=O)NC(=S)Nc2ccc(N3CCN(C)CC3)cc2)c1`, which Potency is on record?
A: Its Potency is inconclusive [inhibitor, single point].

Q: Which Potency does the source give for `N#Cc1c(-c2ccccc2)cc(-c2ccccc2)nc1SCCC(=O)O` here?
A: The Potency was inconclusive [inhibitor, partial curve].

Q: Which Potency does the source give for `COc1ccccc1CCNC(=O)CCn1c(=O)c2cccn2c2ccc(F)cc21` here?
A: The Potency was active: 23.1 µM.

Q: Which Potency does the source give for `O=C(CCC1CCCN(C(=O)c2ccsc2)C1)NCc1ccc(F)c(F)c1` (stereo not drawn) here?
A: Its Potency is inconclusive [inhibitor, single point].

Q: Which Potency does the source give for `Cc1cccn2c(CN[C@@H]3CCCC[C@H]3c3ccccc3)c(C(=O)N3CCOCC3)nc12` here?
A: Its Potency is inconclusive [inhibitor, partial curve].

Q: With `C/C(=N\N=C(N)N)c1cccc(Cl)c1` as the molecule, how does the Potency read?
A: The Potency was active: 16.4 µM.

Q: With `Cc1ccc(-c2cc(C(=O)NCc3ccccn3)c3ccccc3n2)cc1` as the molecule, how does the Potency read?
A: The Potency was inconclusive [inhibitor, single point].

Q: For `O=C(NC1CCCC1)c1cc2nc(-c3ccccc3)cc(-c3ccccc3)n2n1`, which Potency is on record?
A: Its Potency is inconclusive [inhibitor, single point].

Q: For `Cc1onc(-c2c(F)cccc2Cl)c1C(=O)OCC(=O)NC(c1ccccc1)c1ccccc1`, which Potency is on record?
A: Its Potency is inconclusive [inhibitor, single point].

Q: Which Potency does the source give for `CCOC(=O)c1cc(-c2ccc(F)cc2)n(CCC(=O)NC2CCN(Cc3ccccc3)CC2)c1C` here?
A: Its Potency is active: 16.4 µM.

Q: For `COc1cccc(C(=O)NC2CCCc3c2cnn3-c2cc(C)cc(C)c2)c1` (stereo not drawn), which Potency is on record?
A: Its Potency is inconclusive [inhibitor, partial curve].

Q: For `CCC(C)c1ccccc1N1CC(C(=O)Nc2ccccc2N2CCCC2)CC1=O` (stereo not drawn), which Potency is on record?
A: The Potency was inconclusive [inhibitor, single point].

Q: With `O=C(COC(=O)/C=C/c1ccc(S(=O)(=O)N2CCOCC2)cc1)NCc1ccccc1` as the molecule, how does the Potency read?
A: The Potency was active: 7.31 µM.

Q: Which Potency does the source give for `Cc1ccc(-n2ncc3c2CC(C)(C)CC3NC(=O)CCc2c(C)noc2C)cc1` (stereo not drawn) here?
A: The Potency was inconclusive [inhibitor, partial curve, poor fit].

Q: Which Potency does the source give for `CC1=C(C(=O)N(C(C)C)C(C)C)CC(CC(=O)NCc2cccs2)C(=O)N1CCC1=CCCCC1` (stereo not drawn) here?
A: The Potency was inconclusive [inhibitor, single point].

Q: With `COc1cc2c(cc1OC)CN(C(=O)CSC1=NCCS1)CC2` as the molecule, how does the Potency read?
A: The Potency was inconclusive [inhibitor, single point].

Q: For `COC(=O)c1ccc(CNC(=O)c2cc(S(=O)(=O)NCc3ccccc3)ccc2C)cc1`, which Potency is on record?
A: Its Potency is inconclusive [inhibitor, partial curve].
